The source of these data is the antibiotic and cytotoxicity screens of Wong et al. (2023).

Structures are written as SMILES. This is one part of the list.

The first assay has as its system HSkMC (human skeletal muscle cells). The experiment in a line: cytotoxicity call (relative viability < 0.9). The settings on record: 10 µM.
For `CN(C)CCCNC(=O)C[C@@H]1C=C[C@H](NS(=O)(=O)c2ccccc2)[C@H](CO)O1`, the cytotoxicity call was “inactive”.
With `Nc1nc(=O)c2[nH]c(=O)c(=O)[nH]c2[nH]1`, the cytotoxicity call is “inactive”.
The same measure, in the same setting: the result for `CC(C)c1nc2cc3sc(C(C)C)nc3cc2s1` reads “inactive”.
Regarding `COc1ccc(S(=O)(=O)Nc2ccc3c(c2)C(=O)N([C@H](C)CO)C[C@@H](C)[C@@H](CN(C)S(=O)(=O)c2ccc(C)cc2)O3)cc1`, the cytotoxicity call is “inactive”.
Same read-out and setting: the result for `COCC#Cc1ccc2c(c1)O[C@H](CN(C)C(=O)CN(C)C)[C@@H](C)CN([C@@H](C)CO)S2(=O)=O` reads “inactive”; that for `Cc1noc(C)c1NC(=O)Nc1ccc2c(c1)C(=O)N([C@@H](C)CO)C[C@@H](C)[C@@H](CN(C)Cc1ccc(C(=O)Nc3ccccc3N)cc1)O2`, “inactive”.
The same measure, in the same setting: the result for `N=C(N)NCCN1CCCCCCC1` reads “inactive”; that for `C[C@@H]1CCCCO[C@@H](CN(C)S(=O)(=O)c2ccc(Cl)cc2)[C@@H](C)CN([C@H](C)CO)C(=O)c2cc(NC(=O)Nc3ccccc3)ccc2O1`, “inactive”; that for `Cc1ccc(S(=O)(=O)Nc2ccc3c(c2)C(=O)N([C@@H](C)CO)C[C@H](C)[C@H](CN(C)Cc2ccc(Cl)c(Cl)c2)O3)cc1`, “inactive”.
For `CC(=O)NS(=O)(=O)c1ccc(NC(=O)c2ccccc2C(=O)O)cc1`, the cytotoxicity call is “inactive”.
As to `C[C@H]1CN([C@@H](C)CO)C(=O)c2cccc(NC(=O)Nc3ccc(F)cc3)c2O[C@H]1CN(C)Cc1ccc(C(=O)Nc2ccccc2N)cc1`, the cytotoxicity call is “inactive”.
`Cc1noc(C)c1NC(=O)N(C)C[C@@H]1Oc2ccc(NS(C)(=O)=O)cc2CC(=O)N([C@H](C)CO)C[C@@H]1C`: the cytotoxicity call is “inactive”.
Take `C[C@@H]1CN([C@H](C)CO)C(=O)c2cccc(NC(=O)Nc3ccc(C(F)(F)F)cc3)c2O[C@H]1CN(C)Cc1ccc(-c2ccccc2)cc1`: the cytotoxicity call is “inactive”.
`COc1ccc(S(=O)(=O)N(C)C[C@@H]2Oc3ncc(-c4ccccc4)cc3C(=O)N([C@H](C)CO)C[C@@H]2C)cc1`: the cytotoxicity call is “inactive”.
Regarding `CC(C)NC(=O)N(C)C[C@@H]1OCCCC[C@H](C)Oc2ccc(NC(=O)C3CCCCC3)cc2C(=O)N([C@H](C)CO)C[C@@H]1C`, the cytotoxicity call is “inactive”.
`C[C@H](O)C#Cc1ccc2c(c1)O[C@H](CN(C)C(=O)c1ccccc1)[C@H](C)CN([C@H](C)CO)S2(=O)=O`: the cytotoxicity call is “inactive”.
`Cn1cnc(S(=O)(=O)N[C@@H]2C=C[C@@H](CC(=O)Nc3ccccc3)O[C@@H]2CO)c1`: the cytotoxicity call was “inactive”.
For `COC(=O)CCCCCCC(=O)Nc1ccc([C@H]2O[C@@H](CSc3nc4ccccc4s3)C[C@H](c3ccccc3)O2)cc1`, the cytotoxicity call was “inactive”.
The same measure, in the same setting: the value for `C[C@@H]1CN([C@H](C)CO)C(=O)Cc2cc(NC(=O)Cc3cn(C)c4ccccc34)ccc2O[C@H]1CN(C)C(=O)Nc1cccc2ccccc12` was “inactive”; that for `CCS(=O)(=O)N1CC[C@]2(CC1)CN([C@H](CO)c1[nH]c3cc(ccc3c12)OC)S(=O)(=O)c1ccc(cc1)C` was “inactive”.
Same read-out and setting: the value for `Cc1ccc(S(=O)(=O)Nc2ccc3c(c2)CC(=O)N([C@@H](C)CO)C[C@H](C)[C@@H](CN(C)S(=O)(=O)c2ccc(F)cc2)O3)cc1` was “inactive”.
Still for that read-out and setting: the value for `CC1(C)S[C@@H]2[C@H](NC(=O)[C@H](NC(=O)N3CCNC3=O)c3ccccc3)C(=O)N2[C@H]1C(=O)O` was “inactive”.
For `C[C@H]1CN([C@@H](C)CO)C(=O)Cc2cc(NC(=O)Nc3cccc4ccccc34)ccc2O[C@@H]1CN(C)Cc1ccc(-c2ccccc2)cc1`, the cytotoxicity call is “active”.
Consider `CCN1C(=O)C[C@@H]2[C@@H]1CCN2S(=O)(=O)c1cn(C)cn1`, for which the cytotoxicity call is “inactive”.
On to `CN(C)CC(=O)N[C@@H]1CC[C@@H](CC(=O)NCCN2CCCCC2)O[C@H]1CO`, for which the cytotoxicity call was “inactive”.
For the compound `COc1ccc(NC(=O)Nc2ccc3c(c2)C(=O)N([C@H](C)CO)C[C@@H](C)[C@H](CN(C)S(=O)(=O)c2ccc(F)cc2)OCCCC[C@H](C)O3)cc1`, the cytotoxicity call was “inactive”.
Take `O=C(O)c1ccc(O)cc1O`: the cytotoxicity call is “inactive”.
The same measure, in the same setting: the result for `COCC#Cc1ccc2c(c1)O[C@@H](CN(C)C(=O)C1CCOCC1)[C@H](C)CN([C@H](C)CO)S2(=O)=O` reads “inactive”; that for `Nc1ncnc2c1ncn2[C@H]1O[C@@H](COP(=O)(O)OP(=O)(O)OP(=O)(O)O)[C@@H](O)[C@@H]1O`, “inactive”; that for `C[C@@H]1CCCCO[C@@H](CN(C)Cc2ccc(C(=O)O)cc2)[C@@H](C)CN([C@H](C)CO)C(=O)c2cc(NC(=O)Cc3ccccc3)ccc2O1`, “inactive”.
Regarding `CC(C)CC#Cc1ccc2c(c1)O[C@H](CN(C)S(=O)(=O)c1cccc(F)c1)[C@@H](C)CN([C@H](C)CO)S2(=O)=O`, the cytotoxicity call was “inactive”.

Another assay deals with HepG2. The experiment in a line: cytotoxicity call (relative viability < 0.9). Conditions: 10 µM.
Regarding `C=CC(C1=CC(=O)C=CC1=O)c1ccccc1` (stereo unspecified), the cytotoxicity call is “active”.
For the compound `C[C@@H]1CN([C@H](C)CO)C(=O)c2cccc(NC(=O)c3cnccn3)c2O[C@@H]1CN(C)S(=O)(=O)c1ccc(F)cc1`, the cytotoxicity call is “inactive”.
On the same count and under the same terms, the result for `O=C(C[C@@H]1CC[C@H]2[C@@H](COC[C@H](O)CN2C(=O)Nc2ccc3c(c2)OCO3)O1)N1CCN(c2ccccc2)CC1` reads “inactive”; that for `Cc1ccc(S(=O)(=O)N2C[C@@H](O)COC[C@@H]3O[C@@H](CC(=O)NCCCN(C)C)CC[C@H]32)cc1`, “inactive”.
As for `C[C@H]1CN([C@@H](C)CO)C(=O)Cc2cc(NC(=O)CCCCCC(=O)Nc3ccccc3N)ccc2O[C@H]1CN(C)Cc1ccc(-c2ccccc2)cc1`, the cytotoxicity call was “active”.
For the compound `NNC(=O)c1ccccn1`, the cytotoxicity call was “inactive”.
Take `Cc1noc(C)c1S(=O)(=O)Nc1ccc2c(c1)C(=O)N([C@@H](C)CO)C[C@@H](C)[C@H](CN(C)S(=O)(=O)c1cccs1)O2`: the cytotoxicity call is “inactive”.
Turning to `COc1ccc(S(=O)(=O)N(C)C[C@H]2Oc3ccc(NS(=O)(=O)c4cn(C)cn4)cc3C(=O)N([C@@H](C)CO)C[C@@H]2C)cc1`, the cytotoxicity call was “inactive”.
For the compound `CN[C@@H]1[C@H](O[C@H]2[C@H](O[C@@H]3[C@@H](O)[C@H](O)[C@@H](NC(=N)N)[C@H](O)[C@H]3NC(=N)N)O[C@@H](C)[C@]2(O)CO)O[C@@H](CO)[C@H](O)[C@H]1O.CN[C@@H]1[C@H](O[C@H]2[C@H](O[C@@H]3[C@@H](O)[C@H](O)[C@@H](NC(=N)N)[C@H](O)[C@H]3NC(=N)N)O[C@@H](C)[C@]2(O)CO)O[C@@H](CO)[C@H](O)[C@H]1O`, the cytotoxicity call was “inactive”.
The same measure, in the same setting: the value for `CN(C)CCCNC(=O)C[C@@H]1C=C[C@H](NS(=O)(=O)c2ccccc2)[C@H](CO)O1` was “inactive”; that for `Nc1nc(=O)c2[nH]c(=O)c(=O)[nH]c2[nH]1` was “inactive”.
As to `CC(C)c1nc2cc3sc(C(C)C)nc3cc2s1`, the cytotoxicity call is “inactive”.
On to `COc1ccc(S(=O)(=O)Nc2ccc3c(c2)C(=O)N([C@H](C)CO)C[C@@H](C)[C@@H](CN(C)S(=O)(=O)c2ccc(C)cc2)O3)cc1`, for which the cytotoxicity call was “inactive”.
With `COCC#Cc1ccc2c(c1)O[C@H](CN(C)C(=O)CN(C)C)[C@@H](C)CN([C@@H](C)CO)S2(=O)=O`, the cytotoxicity call was “inactive”.
In the case of `Cc1noc(C)c1NC(=O)Nc1ccc2c(c1)C(=O)N([C@@H](C)CO)C[C@@H](C)[C@@H](CN(C)Cc1ccc(C(=O)Nc3ccccc3N)cc1)O2`, the cytotoxicity call is “inactive”.
On the same count and under the same terms, the value for `N=C(N)NCCN1CCCCCCC1` was “inactive”; that for `C[C@@H]1CCCCO[C@@H](CN(C)S(=O)(=O)c2ccc(Cl)cc2)[C@@H](C)CN([C@H](C)CO)C(=O)c2cc(NC(=O)Nc3ccccc3)ccc2O1` was “inactive”; that for `Cc1ccc(S(=O)(=O)Nc2ccc3c(c2)C(=O)N([C@@H](C)CO)C[C@H](C)[C@H](CN(C)Cc2ccc(Cl)c(Cl)c2)O3)cc1` was “inactive”.
Consider `CC(=O)NS(=O)(=O)c1ccc(NC(=O)c2ccccc2C(=O)O)cc1`, for which the cytotoxicity call was “inactive”.
With `C[C@H]1CN([C@@H](C)CO)C(=O)c2cccc(NC(=O)Nc3ccc(F)cc3)c2O[C@H]1CN(C)Cc1ccc(C(=O)Nc2ccccc2N)cc1`, the cytotoxicity call was “active”.
On to `Cc1noc(C)c1NC(=O)N(C)C[C@@H]1Oc2ccc(NS(C)(=O)=O)cc2CC(=O)N([C@H](C)CO)C[C@@H]1C`, for which the cytotoxicity call is “inactive”.
As for `C[C@@H]1CN([C@H](C)CO)C(=O)c2cccc(NC(=O)Nc3ccc(C(F)(F)F)cc3)c2O[C@H]1CN(C)Cc1ccc(-c2ccccc2)cc1`, the cytotoxicity call is “inactive”.
Regarding `COc1ccc(S(=O)(=O)N(C)C[C@@H]2Oc3ncc(-c4ccccc4)cc3C(=O)N([C@H](C)CO)C[C@@H]2C)cc1`, the cytotoxicity call was “inactive”.
Same read-out and setting: the result for `CC(C)NC(=O)N(C)C[C@@H]1OCCCC[C@H](C)Oc2ccc(NC(=O)C3CCCCC3)cc2C(=O)N([C@H](C)CO)C[C@@H]1C` reads “inactive”; that for `C[C@H](O)C#Cc1ccc2c(c1)O[C@H](CN(C)C(=O)c1ccccc1)[C@H](C)CN([C@H](C)CO)S2(=O)=O`, “inactive”.
For the compound `Cn1cnc(S(=O)(=O)N[C@@H]2C=C[C@@H](CC(=O)Nc3ccccc3)O[C@@H]2CO)c1`, the cytotoxicity call is “inactive”.
As for `COC(=O)CCCCCCC(=O)Nc1ccc([C@H]2O[C@@H](CSc3nc4ccccc4s3)C[C@H](c3ccccc3)O2)cc1`, the cytotoxicity call was “inactive”.
On the same count and under the same terms, the result for `C[C@@H]1CN([C@H](C)CO)C(=O)Cc2cc(NC(=O)Cc3cn(C)c4ccccc34)ccc2O[C@H]1CN(C)C(=O)Nc1cccc2ccccc12` reads “inactive”; that for `CCS(=O)(=O)N1CC[C@]2(CC1)CN([C@H](CO)c1[nH]c3cc(ccc3c12)OC)S(=O)(=O)c1ccc(cc1)C`, “inactive”; that for `Cc1ccc(S(=O)(=O)Nc2ccc3c(c2)CC(=O)N([C@@H](C)CO)C[C@H](C)[C@@H](CN(C)S(=O)(=O)c2ccc(F)cc2)O3)cc1`, “inactive”.
As to `CC1(C)S[C@@H]2[C@H](NC(=O)[C@H](NC(=O)N3CCNC3=O)c3ccccc3)C(=O)N2[C@H]1C(=O)O`, the cytotoxicity call was “inactive”.
On to `C[C@H]1CN([C@@H](C)CO)C(=O)Cc2cc(NC(=O)Nc3cccc4ccccc34)ccc2O[C@@H]1CN(C)Cc1ccc(-c2ccccc2)cc1`, for which the cytotoxicity call is “inactive”.
Consider `CCN1C(=O)C[C@@H]2[C@@H]1CCN2S(=O)(=O)c1cn(C)cn1`, for which the cytotoxicity call is “inactive”.
Turning to `CN(C)CC(=O)N[C@@H]1CC[C@@H](CC(=O)NCCN2CCCCC2)O[C@H]1CO`, the cytotoxicity call was “inactive”.
Consider `COc1ccc(NC(=O)Nc2ccc3c(c2)C(=O)N([C@H](C)CO)C[C@@H](C)[C@H](CN(C)S(=O)(=O)c2ccc(F)cc2)OCCCC[C@H](C)O3)cc1`, for which the cytotoxicity call is “active”.
